Among all 330,000 compounds or so, about 560 (0.17%) were called active. This list was built around the results that the source calls inconclusive (neither active nor inactive); the mix of calls is not that of the screen. The call rests on the fitted dose curve; in most records, active means well fitted inhibition curve with a large enough effect; inconclusive means small, poorly fitted or top-dose-only effect, or effect the other way; inactive means flat fitted curve, though single readings scatter. Potencies of inconclusive entries are left out as doubtful fits.
The compounds below were run against ATP-dependent 6-phosphofructokinase (Trypanosoma brucei brucei) (UniProt O15648) (assay: qHTS Assay to Find Inhibitors of T. brucei phosphofructokinase). Conditions: T. brucei PFK, ADP-Glo luminescence; series mostly up to 57.5 µM.
Chain of UniProt O15648 (O15648 whole entry, looked up): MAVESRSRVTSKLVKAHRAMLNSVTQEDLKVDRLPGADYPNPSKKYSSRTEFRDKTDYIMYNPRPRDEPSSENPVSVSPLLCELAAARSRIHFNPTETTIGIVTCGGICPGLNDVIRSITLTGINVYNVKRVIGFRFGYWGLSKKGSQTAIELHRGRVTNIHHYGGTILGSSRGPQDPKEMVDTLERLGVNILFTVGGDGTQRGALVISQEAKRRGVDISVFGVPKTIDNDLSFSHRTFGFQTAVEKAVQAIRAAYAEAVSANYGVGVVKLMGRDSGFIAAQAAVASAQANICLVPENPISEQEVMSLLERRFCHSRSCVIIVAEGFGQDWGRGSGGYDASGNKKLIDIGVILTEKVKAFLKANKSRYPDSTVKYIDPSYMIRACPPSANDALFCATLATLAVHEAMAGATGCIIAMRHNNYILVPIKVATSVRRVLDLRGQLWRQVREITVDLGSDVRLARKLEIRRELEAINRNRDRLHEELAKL
Procedure, shortened: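 Activity is normalized to no-enzyme wells (full inhibition) and 1.25 nM enzyme wells (no inhibition). Reaction: 0.5 mM F6P, 0.1 mM ATP, 45 min RT, ADP-Glo luminescence; concentration-response curves fitted and classed by quality.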
In the case of `O=C(Cc1ccc(Cl)c(Cl)c1)NNC(=S)NCC1CCCO1` (stereo not given), the Potency is reported as inconclusive [falling, partial curve]. In the case of `CC(=O)c1ccc(OCCCC(=O)n2nnc3ccccc32)cc1`, the Potency is reported as “inactive”. For `CC(=O)Nc1ccc(S(=O)(=O)NCCC(=O)OCC(=O)N2CCN(C(=O)c3ccco3)CC2)cc1`, the Potency was inconclusive [falling, partial curve, poor fit]. With `Cc1sc2ncnc(SCC(=O)Nc3ncccc3O)c2c1C` the Potency was inconclusive [falling, single point]. For `NS(=O)(=O)c1ccc(NC(=S)N2CCN(c3cccc(Cl)c3)CC2)cc1`, the Potency was inconclusive [falling, partial curve]. In the case of `CC(C)(C)c1ccc(OCCC(=O)NCCc2ccc(S(N)(=O)=O)cc2)cc1`, the Potency is reported as inconclusive [falling, single point]. For `O=C(Nc1ccc(F)cc1)Nc1ccc(S(=O)(=O)N2CCCC2)cc1`, the Potency was inconclusive [falling, partial curve]. With `Cc1nn(Cc2ccccc2)c(C)c1NC(=O)Cn1nc([N+](=O)[O-])c(Cl)c1C` the Potency was inconclusive [falling, single point]. `O=C(NCC1COc2ccccc2O1)c1ccc(NC(=O)c2ccco2)cc1` (stereo not given) was tested, and the Potency was inconclusive [activator, single point]. For `Cc1ccc(C(=S)N2CCN(Cc3ccccc3)CC2)s1`, the Potency was inconclusive [falling, single point]. `O=C(CCCc1ccccc1)Nc1ccc(Br)cc1F` was tested, and the Potency was inconclusive [falling, single point]. For `Oc1ccc(/C=N/n2cc(-c3ccccc3)[nH]c2=S)cc1`, the Potency was inconclusive [falling, full curve]. For `C=CCn1c(Cc2nc3ccccc3[nH]2)n[nH]c1=S`, the Potency was inconclusive [falling, single point]. For `CC(C)[C@H](NC(=O)C1CCC(CNC(=O)[C@@H]2CCCN2C(=O)OC(C)(C)C)CC1)C(=O)O` (stereo not given in full), the Potency was “inactive”. In the case of `Cc1cc(=O)oc2c3c(cc(OCC(=O)N4CCC(C(=O)O)CC4)c12)OC(C)(C)CC3`, the Potency is reported as “inactive”. For `Cc1cc(O)c(C=Nc2ccc(Cl)cn2)c(=O)o1`, the Potency was inconclusive [falling, single point]. `CC(=O)c1cnn(-c2ccc(Cl)cc2)c1C` was tested, and the Potency was “inactive”. With `CCNc1nc(NCC)n2c(SCC(=O)Nc3ccccc3C(F)(F)F)nnc2n1` the Potency was inconclusive [falling, single point]. `O=C(Nc1cc(C(F)(F)F)ccc1N1CCCCC1)c1ccco1` was tested, and the Potency was inconclusive [activator, single point]. `NC(=O)c1ccsc1NC(=O)COC(=O)/C=C/c1ccccc1[N+](=O)[O-]` was tested, and the Potency was inconclusive [activator, single point]. For `C[n+]1cccc(/C=N/NC(=O)CC23CC4CC(CC(C4)C2)C3)c1`, the Potency was “inactive”. In the case of `CC(C)c1ccc(OCC(=O)NCc2n[nH]c(=O)c3ccccc23)cc1`, the Potency is reported as “inactive”. With `CC1CCN(Cc2c(O)ccc3c2O/C(=C\c2ccco2)C3=O)CC1` the Potency was inconclusive [falling, single point]. For `O=C(Nc1ccc([N+](=O)[O-])cc1)Nc1ccon1`, the Potency was inconclusive [falling, partial curve]. `O=Nc1c(-c2cccc([N+](=O)[O-])c2)nc2ncccn12` was tested, and the Potency was inconclusive [falling, partial curve]. With `O=C1/C(=C\c2ccco2)CCC/C1=C\c1ccco1` the Potency was inconclusive [falling, single point]. For `Cc1ccc(Sc2ncccc2C(=O)NC2CCCCCC2)cc1C`, the Potency was inconclusive [falling, single point]. For `Cc1nnc(Cl)c2nn(-c3ccccc3F)c(C)c12`, the Potency was inconclusive [falling, single point]. `CC(=O)c1c(C)[nH]c(C(=O)OC(C)C(=O)Nc2ccc(C)c(S(=O)(=O)N3CCOCC3)c2)c1C` (stereo not given) was tested, and the Potency was “inactive”. With `COc1ccc(CCNC(=O)CCc2ccccc2O)cc1OC` the Potency was inconclusive [activator, single point]. In the case of `CC(=O)c1ccccc1NC(=O)COC(=O)c1c(C)nn(-c2ccccc2)c1C`, the Potency is reported as inconclusive [falling, single point]. With `COc1cccc(CN(C)C(=O)CN2C(=O)NC(c3ccccc3)(c3ccccc3)C2=O)c1OC` the Potency was “inactive”. In the case of `CC(=O)Nc1cccc(/C(C)=N\NC(=O)c2ccc(Cn3nc([N+](=O)[O-])c(Cl)c3C)o2)c1`, the Potency is reported as “inactive”. With `O=C(CSc1nc(O)c(Cc2ccccc2)c(=O)[nH]1)Nc1nc2c(s1)CCCC2` the Potency was inconclusive [falling, single point]. For `Cc1cc(SCc2cccc([N+](=O)[O-])c2)nc(=O)[nH]1`, the Potency was “inactive”. With `COc1c(OC)c(O)c2c(=O)cc(-c3c(O)cccc3O)oc2c1OC` the Potency was inconclusive [falling, single point]. `O=C(CCCOc1ccc(Cl)cc1Cl)N/N=C/c1ccccc1O` was tested, and the Potency was inconclusive [falling, single point]. `CCc1oc2c(C)c(O)ccc2c(=O)c1-c1ccc2ccccc2n1` was tested, and the Potency was “inactive”. For `COc1ccc(CCNC(=O)C2CCN(S(=O)(=O)c3cccc4cccnc34)CC2)cc1OC`, the Potency was inconclusive [falling, single point]. In the case of `O=C(Cc1ccc(Cl)c(Cl)c1)OCC(=O)c1ccc[nH]1`, the Potency is reported as inconclusive [falling, partial curve]. `COc1ccc(/C=N/N2C(=O)c3ccccc3C2=O)cc1` was tested, and the Potency was “inactive”. For `CCOC(=O)N/N=C(\CCC(=O)O)c1cccs1`, the Potency was “inactive”. `Cc1cc(C(=O)O)ccc1-n1c(C)cc(/C=C2\SC(=O)NC2=O)c1C` was tested, and the Potency was “inactive”. With `O=C(c1ccc(Cl)c(Cl)c1)N1CCN(c2ccccn2)CC1` the Potency was “inactive”. For `Fc1ccccc1C1CC(c2ccco2)=Nc2ccccc2S1` (stereo not given), the Potency was inconclusive [falling, partial curve]. With `O=C(Cc1ccccc1Cl)Nc1cccc(S(=O)(=O)N2CCOCC2)c1` the Potency was inconclusive [falling, single point]. `COc1ccc(-n2c(O)c(/C=N/NS(=O)(=O)c3ccc(C)cc3)c3ccccc3c2=O)cc1OC` was tested, and the Potency was “inactive”. `Cn1c(CSCc2ccc(Cl)c(Cl)c2)n[nH]c1=S` was tested, and the Potency was inconclusive [falling, single point]. In the case of `CCN(CC)c1ncnc2c1cnn2Cc1ccc(C)cc1`, the Potency is reported as inconclusive [falling, partial curve]. With `NC(=O)c1c(N)sc2c1CCCCC2` the Potency was inconclusive [falling, partial curve]. `O=C(COc1ccc(Cl)cc1Cl)NN=C1CCCCC1` was tested, and the Potency was inconclusive [falling, single point]. For `Cc1cc(C)c2c(=O)n(CC(=O)Nc3cccc(Cl)c3C)sc2n1`, the Potency was active: 4.78 µM. In the case of `O=C(Nc1nc(-c2ccc3c(c2)Cc2ccccc2-3)cs1)c1ccccc1`, the Potency is reported as “inactive”. With `CC(=O)c1ccc(S(=O)(=O)Nc2ccc(-n3cnnn3)cc2)cc1` the Potency was inconclusive [falling, single point]. In the case of `COC(=O)[C@@]12CCCCN1[C@H](c1ccc(-c3ccc(F)cc3)c(OC)c1)[C@H]1C(=O)N(C)C(=O)[C@H]12`, the Potency is reported as “inactive”. `CN(C)C(=S)Nc1nc2ccccc2s1` was tested, and the Potency was inconclusive [falling, partial curve]. `O=C(NCc1cccnc1)c1c[nH]c2cc3c(cc2c1=O)OCCO3` was tested, and the Potency was “inactive”. `O=C(Nc1nc(-c2ccco2)c(-c2ccco2)s1)C1CC(=O)N(c2ccc3c(c2)OCCO3)C1` (stereo not given) was tested, and the Potency was inconclusive [falling, partial curve]. For `CN(C)c1ccc(-c2nc3cnccn3c2Nc2ccc3c(c2)OCCO3)cc1`, the Potency was “inactive”. In the case of `Cc1nc(NC(=O)c2ccco2)sc1C(=O)O`, the Potency is reported as “inactive”. For `Cc1ccccc1NC(=S)NC(=O)CCc1ccccc1`, the Potency was “inactive”. For `O=C(CN1CCC(NC(=O)Nc2ccccc2-c2ccccc2)CC1)NCc1ccco1`, the Potency was inconclusive [falling, single point]. For `Cc1ccc(SC(CC(=O)c2ccc(F)cc2)C(=O)O)cc1` (stereo not given), the Potency was inconclusive [activator, partial curve, poor fit]. `CCCCOC(=O)CSc1nc(N)c(C#N)c(-c2ccc(OCC)cc2)c1C#N` was tested, and the Potency was “inactive”. With `COc1ccc(C(=O)NNC(=O)c2ccccn2)cc1` the Potency was active: 15.1 µM. For `Cc1cccc2cc(C(c3nnnn3C(C)(C)C)N(Cc3ccco3)CC3CCCO3)c(=O)[nH]c12` (stereo not given), the Potency was inconclusive [falling, single point]. `CCOC(=O)Cc1csc(NC(=O)Nc2ccc(OC(F)(F)F)cc2)n1` was tested, and the Potency was “inactive”. `CC(Nc1ccc(Br)cn1)c1cc(Cl)ccc1O` (stereo not given) was tested, and the Potency was “inactive”. With `Oc1c(Br)cc(Br)cc1C=Nc1ccc2[nH]ncc2c1` the Potency was “inactive”. In the case of `CC(=O)Nc1ccc(S(=O)(=O)NCCc2csc(C)n2)cc1`, the Potency is reported as inconclusive [falling, single point]. For `CCCCNC(=S)NCc1ccc2[nH]c(C)cc2c1`, the Potency was inconclusive [falling, single point]. With `Nc1ccc2oc(=O)c3ccccc3c2c1` the Potency was “inactive”. With `CCSc1ncc(Cl)c(C(=O)Nc2ccc(S(N)(=O)=O)cc2)n1` the Potency was “inactive”. For `CC(=O)N(c1ccc2oc(=O)sc2c1)S(=O)(=O)c1ccc(C(=O)O)cc1`, the Potency was inconclusive [activator, partial curve]. `CC(C)[C@H](NC(N)=O)C(=O)Nc1cccc(S(=O)(=O)N2CCOCC2)c1` was tested, and the Potency was inconclusive [activator, single point].
Further: nearly all actives have a fitted effect of over 60% in size.
Potency means the concentration at half of the fitted maximal effect; tags describe the fitted curve by direction and shape.
